In PubChem BioAssay AID1768 (National Center for Advancing Translational Sciences (NCATS), 2009):
Among all 270,000 compounds or so, about 620 (0.23%) were called active. Inconclusive results, whose numbers are uncertain, are shown with a selection of clear calls. Calls follow the shape of the dose curve; as a rule, active = well fitted inhibition curve with a large enough effect in the polarisation, with a control signal flat (not every such curve was filed as active); inconclusive = small, poorly fitted or top-dose-only effect, or effect the other way, or a change in a side signal; inactive = no such curve, though single readings can be large or run the other way; the % refers to the polarisation. Potencies of inconclusive entries are doubtful fits and often do not repeat. A note “side channel” means that the fit belongs to a control or component signal, not to the main read-out.

biological target: Menin (Homo sapiens) (UniProt O00255); assay: qHTS Assay for Inhibitors Targeting the Menin-MLL Interaction in MLL Related Leukemias: Competition With Texas Red Labeled MLL-derived Mutant Peptide; conditions: fluorescence polarization; FP activity change, negative = inhibition: at 61.6 µM (top of the series); as to FP activity change, negative = inhibition: % of control where 0% means no effect
Potency is read from the fitted curve at half-maximal effect; tags tell the direction and shape of the fitted curve or compound fluorescence and quenching.

UniProt O00255, sequence (O00255 whole entry, looked up): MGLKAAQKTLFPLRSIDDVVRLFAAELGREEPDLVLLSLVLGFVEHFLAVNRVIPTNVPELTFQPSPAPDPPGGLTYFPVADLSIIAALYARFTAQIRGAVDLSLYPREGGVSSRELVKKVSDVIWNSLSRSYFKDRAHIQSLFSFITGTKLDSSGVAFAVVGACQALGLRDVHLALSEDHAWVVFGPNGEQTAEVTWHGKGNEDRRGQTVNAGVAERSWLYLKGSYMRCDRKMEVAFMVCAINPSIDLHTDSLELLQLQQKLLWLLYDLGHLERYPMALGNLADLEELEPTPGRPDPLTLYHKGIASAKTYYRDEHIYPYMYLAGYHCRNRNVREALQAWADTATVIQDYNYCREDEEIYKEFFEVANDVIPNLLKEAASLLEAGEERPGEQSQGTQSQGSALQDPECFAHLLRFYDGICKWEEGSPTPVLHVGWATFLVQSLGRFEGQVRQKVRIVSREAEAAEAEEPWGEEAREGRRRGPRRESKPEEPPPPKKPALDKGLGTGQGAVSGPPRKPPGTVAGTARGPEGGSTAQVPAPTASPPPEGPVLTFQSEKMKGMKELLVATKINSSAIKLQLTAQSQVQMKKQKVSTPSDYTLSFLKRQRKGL

| Structure (SMILES) | FP activity change, negative = inhibition | Potency |
| --- | --- | --- |
| N#Cc1c(N)oc(-c2ccccc2)c1-c1ccccc1 | inactive: -9.2% |  |
| CCC(c1nnnn1C1CCCC1)N1CCC(C(N)=O)CC1 (configuration not stated) |  | inconclusive: 31.6 µM [inhibitor, single point] |
| Cc1cc(C)c2c(CN3CCN(Cc4ccc5c(c4)OCO5)CC3)cc(=O)oc2c1C |  | inconclusive: 10 µM [fluorescent, side channel, partial curve, poor fit] |
| O=[N+]([O-])c1cc(S(=O)(=O)Nc2ccc(Cl)cc2)ccc1N/N=C/c1ccncc1 |  | inconclusive: 10 µM [quencher, side channel, partial curve] |
| O=C(Cc1ccccc1)Nc1ccc(C(=O)Nc2ccc(O)cc2)cc1 |  | inconclusive: 25.1 µM [inhibitor, single point] |
| OCCNCc1ccc(OCc2ccc(Cl)cc2Cl)cc1 |  | inconclusive: 39.8 µM [fluorescent, side channel, single point] |
| O=C(NNC(=S)NC1CCCCC1)c1sc2ccccc2c1Cl |  | inconclusive: 12.6 µM [quencher, side channel, partial curve] |
| CCCSc1nc2c(c(=O)[nH]c(=O)n2C)n1Cc1ccccc1 |  | inconclusive: 11.2 µM [inhibitor, partial curve] |
| S=c1nc(SCc2ccccc2)[nH]c2ccccc12 |  | inconclusive: 12.6 µM [quencher, side channel, partial curve] |
| COc1cccc(NC(=S)NC(=O)/C=C/c2ccc(F)cc2)c1 |  | inconclusive: 39.8 µM [inhibitor, single point] |
| C/C(=N\NC(=O)NC1CCCCC1)c1ccc(OC(F)F)cc1OC(F)F |  | inconclusive: 12.6 µM [fluorescent, side channel, partial curve] |
| CCNC(=S)N/N=C(\C)c1ccc(Cl)s1 | inactive: -2.86% |  |
| CCN(CC)C(=O)Oc1ccc2c(=O)c(-c3ccc(OC)cc3)c(C)oc2c1 |  | inconclusive: 2.51 µM [fluorescent, side channel, full curve] |
| Cc1c(C(=O)O)oc2ccc3c(c12)C(O)CC(C)(C)O3 (configuration not stated) |  | inconclusive: 39.8 µM [inhibitor, single point] |
| Cc1oc(-c2ccccc2)cc1C(=O)Nc1cccc(C(=O)O)c1 |  | inconclusive: 25.1 µM [quencher, side channel, partial curve] |
| Cc1cc(/C=N/Nc2ccc([N+](=O)[O-])cn2)c(C)n1-c1ccccc1 |  | inconclusive: 6.31 µM [quencher, side channel, partial curve] |
| CC1(C)CCc2cc(CN3CCN(c4ccccn4)CC3)ccc2O1 |  | inconclusive: 11.2 µM [inhibitor, partial curve] |
| Cc1oc(-c2cccc(F)c2)nc1CN(Cc1ccccc1)C[C@@H]1CCC(=O)N1 |  | inconclusive: 8.91 µM [fluorescent, side channel, partial curve] |
| CCCN(CCC)CCNC(=O)c1cc2c(-c3ccccc3F)nn(C)c2s1 |  | inconclusive: 10 µM [fluorescent, side channel, partial curve] |

| Structure (SMILES) | FP activity change, negative = inhibition | Potency |
| --- | --- | --- |
| CCC1OC23CCCCC2C(C#N)(C(=N)O3)C1(C#N)C#N (configuration not stated) |  | inconclusive: 39.8 µM [inhibitor, single point] |
| COc1ccc(N/C=C2/Sc3ccccc3NC2=O)cc1 |  | inconclusive: 25.1 µM [quencher, side channel, partial curve] |
| O=c1[nH]nc(C(F)(F)F)c2nnn(Cc3ccccc3Cl)c12 |  | inconclusive: 25.1 µM [quencher, side channel, single point] |
| COc1cc2c(cc1NC(=O)COC(=O)CNC(=O)c1ccccc1)oc1ccccc12 |  | inconclusive: 6.31 µM [quencher, side channel, partial curve] |
| CCOC(=O)CN1C(=O)S/C(=C/C=C/c2ccc(N(C)C)cc2)C1=O |  | inconclusive: 15.8 µM [fluorescent, side channel, partial curve] |
| COc1ccc(OC)c(S(=O)(=O)N2CCN(CC(O)COc3ccccc3)CC2)c1 (configuration not stated) |  | inconclusive: 39.8 µM [inhibitor, single point] |
| O=C1/C(=C/c2ccc(O)c(O)c2)SC(=S)N1Nc1ccccc1 |  | inconclusive: 14.1 µM [fluorescent, side channel, partial curve] |
| Cc1ccc(C(=O)OCC(=O)N(C)c2ccccc2)c(C)c1 |  | inconclusive: 39.8 µM [quencher, side channel, single point] |
| CCCSc1nc(C)c(-c2csc(C(C#N)=C3CCCC3)n2)cc1C#N |  | inconclusive: 2.51 µM [quencher, side channel, full curve] |
| CCCCc1cc(=O)oc2cc(OC(C)C(=O)NCc3ccccn3)c(Cl)cc12 (configuration not stated) |  | inconclusive: 8.91 µM [fluorescent, side channel, partial curve] |
| Cc1ccc(C2SCC(=O)N2Cc2ccccc2)cc1 (configuration not stated) |  | inconclusive: 8.91 µM [fluorescent, side channel, partial curve] |
| CC(=O)Nc1cccc(Oc2ncccc2[N+](=O)[O-])c1 |  | inconclusive: 8.91 µM [inhibitor, partial curve] |
| COc1c(F)c(F)c(C(=O)Nc2ccc(NC(=O)c3ccco3)cc2)c(F)c1F |  | inconclusive: 20 µM [inhibitor, partial curve] |
| CCCCC(CC)Cn1c2nc3ccccc3nc2c2c(=N)oc(C)nc21 (configuration not stated) |  | inconclusive: 15.8 µM [fluorescent, side channel, partial curve] |
| CN(Cc1ccccc1)CC(O)COc1ccc(CNCc2cc3ccccc3s2)cc1 (configuration not stated) |  | inconclusive: 3.55 µM [fluorescent, side channel, partial curve] |
| Cc1cccc(N2C(S)=C(C#N)C(=O)NC2c2cccs2)c1 (configuration not stated) |  | inconclusive: 39.8 µM [quencher, side channel, single point] |
| O=c1[nH]c(Nc2ccccc2)cc2ccccc12 | inactive: 25% |  |
| O=C(Nc1ccccc1)c1ccc(-c2ccc(F)cc2)s1 |  | inconclusive: 28.2 µM [inhibitor, partial curve, poor fit] |
| O=C(Nc1sc2c(c1C(=O)O)CCCCC2)c1ccccc1 |  | inconclusive: 7.94 µM [quencher, side channel, partial curve] |

| Structure (SMILES) | FP activity change, negative = inhibition | Potency |
| --- | --- | --- |
| COCCN(C(=O)CC1C(=O)NCCN1Cc1ccc(-c2ccccc2)cc1)C(C)C (configuration not stated) |  | inconclusive: 22.4 µM [fluorescent, side channel, partial curve] |
| Cc1cccc(N2CCN(C(=O)COc3ccc4c(c3)CCC4)CC2)c1C |  | inconclusive: 17.8 µM [fluorescent, side channel, partial curve] |
| CCOc1ccc(OCC)c(NC(=O)CCCN2C(=O)c3cccnc3C2=O)c1 |  | inconclusive: 10 µM [inhibitor, single point] |
| CC1(C)Cc2ccccc2C(NN=C2CCCC2)=N1 |  | inconclusive: 35.5 µM [inhibitor, single point] |
| CC(=O)N(CC(C)(C)CC=C(C)C)c1ccccc1 |  | inconclusive: 39.8 µM [fluorescent, side channel, single point] |
| Brc1ccc(-c2ccc(/C=N/Nc3nc(N4CCOCC4)nc(N4CCOCC4)n3)o2)cc1 |  | inconclusive: 6.31 µM [quencher, side channel, partial curve] |
| COc1ccc(CCNC(=O)Nc2cccc([N+](=O)[O-])c2)cc1 |  | inconclusive: 14.1 µM [quencher, side channel, partial curve] |
| CC(=O)NCCn1c(SCc2ccccc2F)nc2ccccc2c1=O |  | inconclusive: 2.24 µM [inhibitor, partial curve, poor fit] |
| C#CCOCCOCCOCCNc1nc(N2CCN(C(=O)C([C@@H](C)CC)n3cc(C(N)CC(C)C)nn3)CC2)nc(N2CCN(C(=O)[C@H](CCC(=O)O)n3cc(C(N)[C@H](C)CC)nn3)CC2)n1 (some centres not stated) |  | inconclusive: 15.8 µM [fluorescent, side channel, partial curve] |
| CC(=O)Nc1ccc(OCCOc2ccc(/C=C3\C(=N)N4N=C(C)SC4=NC3=O)cc2)cc1 |  | inconclusive: 31.6 µM [inhibitor, single point] |
| O=C(/C=C/c1ccco1)Oc1ccc(C(=S)N2CCOCC2)cc1 | inactive: -1.48% |  |
| CCOC(=O)c1c(-c2ccc(C)s2)csc1N |  | inconclusive: 35.5 µM [quencher, side channel, single point] |
| COc1ccc(C(C(O)C(=O)c2c[nH]c3ccccc23)N2CCN(c3ccccc3)CC2)cc1 (configuration not stated) |  | inconclusive: 22.4 µM [quencher, side channel, single point] |
| CC1CC(OCC(O)CN2CCOCC2)CC(C)(C)C1 (configuration not stated) | inactive: 2.42% |  |
| COc1ccc(C(=O)NCc2cccnc2)cc1 | inactive: 5.15% |  |
| COc1ccc(CCNC(=O)Cn2cccc2C(=O)c2ccccc2C)cc1OC |  | inconclusive: 35.5 µM [fluorescent, side channel, single point] |
| c1ccc2c(c1)SCc1c-2[nH]c2ccccc12 |  | inconclusive: 2.82 µM [quencher, side channel, partial curve] |
| CN(C)CCNc1ncnc2oc(-c3ccccc3)c(-c3ccccc3)c12 |  | inconclusive: 12.6 µM [fluorescent, side channel, partial curve] |
| COc1cc(/C=C2\C(=O)N(c3ccccc3)N=C2C)ccc1Oc1ccc([N+](=O)[O-])cc1[N+](=O)[O-] |  | inconclusive: 14.1 µM [quencher, side channel, partial curve] |
